Measured values reported in paper doi:10.1101/2023.01.10.523378 (bioRxiv, 2023).

Target: the molecule itself
Assay: high-speed atomic force microscopy

B1: rat CaMKIIα T305A/T306V holoenzyme phosphorylated at Thr286 (enzyme)
chain: not shown
modifications: phosphothreonine at 286 (pT286)
- binding result: binds
